Laboratory results from the BET-seq Pho4 binding data (Le et al. 2018).
The other results are listed elsewhere or left out. Values were computed here from the reads of four pooled replicates and scatter widely.

Biological target: T1, Pho4 (S. cerevisiae) (UniProt P07270)
T1 sequence: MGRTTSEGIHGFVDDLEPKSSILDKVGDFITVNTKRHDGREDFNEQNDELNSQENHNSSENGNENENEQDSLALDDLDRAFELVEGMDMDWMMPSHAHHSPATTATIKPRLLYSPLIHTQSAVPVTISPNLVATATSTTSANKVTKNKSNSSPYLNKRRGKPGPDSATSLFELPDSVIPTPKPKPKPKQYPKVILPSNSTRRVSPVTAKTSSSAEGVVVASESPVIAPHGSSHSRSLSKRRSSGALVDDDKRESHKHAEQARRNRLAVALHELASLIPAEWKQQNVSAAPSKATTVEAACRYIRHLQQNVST
Assay: relative binding free energy (BET-seq); higher = weaker binding
Details: reference: library average

Sequence	relative binding free energy [kcal/mol]
CGGTGCACGTGACATG	0.15
AATAGCACGTGGTAGA	-0.15
CTTTACACGTGTTATT	0.12
TATTGCACGTGAAAAT	0.2
TGTCCCACGTGTGATG	0.06
AGTTCCACGTGGGTGA	-0.04
CTGTGCACGTGCGTCG	0.04
TATGGCACGTGCCGTA	0.01
GCGTGCACGTGAAGAG	0.23
TATGTCACGTGCAATG	0.15
TTGGTCACGTGGCATT	0
CGGCTCACGTGTGATG	0.42
TGCTTCACGTGTCAGG	0.22
CGGGCCACGTGTAGTT	-0.05
TGACGCACGTGTTGGG	-0.04
GGTTACACGTGTTACT	0.21
AATATCACGTGGGCGT	-0.04
AATTTCACGTGTTCGG	0.29
GATGTCACGTGTTAAT	0.17
GTTGACACGTGGTAGA	-0.05
GTCGTCACGTGGGAAT	0.17
GGCGACACGTGAGTGG	0.29
TTAGGCACGTGGTAGC	-0.15

Sequence	relative binding free energy [kcal/mol]
ACTGGCACGTGAGGGA	0.12
CCTTTCACGTGAGTTT	0.37
AATTACACGTGTAGGA	0.18
GTAGTCACGTGTTGTC	0.16
TTGTTCACGTGATTCT	0.34
TTCAACACGTGGGTGT	-0.16
TGTCGCACGTGGTGGT	-0.2
GCGTGCACGTGACTGG	0.12
GCCGGCACGTGTTGTG	-0.05
GAGTTCACGTGTTATA	0.27
AGTGTCACGTGGCTTG	0.02
TATTTCACGTGATTGC	0.26
TTACACACGTGGGTTT	-0.09
GGGGACACGTGCTGCG	0.04
GTGGACACGTGTGCTA	0.06
GGTTTCACGTGAATGG	0.43
AGGTGCACGTGTTCAA	-0.06
AAGATCACGTGTGCTG	0.15
GTCGGCACGTGTGTGG	0.06
TGGTGCACGTGAGCAT	0.24
TAGGTCACGTGCATGA	0.08
CCAGTCACGTGGTGGG	-0.06
TGCTGCACGTGCAGTG	-0.11

Sequence	relative binding free energy [kcal/mol]
AACGGCACGTGGGTCT	-0.12
CGGTGCACGTGTGGGG	0.08
TAGATCACGTGTGGAG	0.18
TAAGTCACGTGATACG	0.26
CGTCACACGTGGGGAG	0
GGCGACACGTGTCGGT	0.16
GATGTCACGTGGATAA	0.18
GTCTTCACGTGTGGAT	0.39
GAAGTCACGTGTGGGA	0.16
ATTGTCACGTGTGGAA	0.2
TGGGTCACGTGCCTGG	0
TGGAACACGTGAGGGT	0.22
TGGGCCACGTGTAAGG	-0.07
CAGGGCACGTGTTGTG	-0.17
AGGGGCACGTGCGCGC	-0.25
CAATTCACGTGGAGGT	0.25
TTAGGCACGTGGTGGC	-0.12
TTGAACACGTGGCTAG	-0.02
GGGGACACGTGGATCG	0.01
CTAGCCACGTGGGGTG	-0.28
GTAGACACGTGGTTAG	-0.02
GTAGCCACGTGTTTGT	0.08
AGTGGCACGTGGCAGA	-0.15

Sequence	relative binding free energy [kcal/mol]
GAGTGCACGTGGTTGA	0.02
GTCAGCACGTGCTGGG	0.08
TAAATCACGTGCTTGG	0.1
GGTGACACGTGGTTTG	0.07
TTGGGCACGTGCGTTC	-0.21
GCTAGCACGTGTGAGG	0.05
GGAGTCACGTGTATTT	0.23
GAGTGCACGTGGGGGC	-0.01
CAGTACACGTGGGAGG	0.01
TGCGTCACGTGATTAG	0.31
GCTGTCACGTGGGGAT	0.08
TAGGGCACGTGAAGTG	0.27
AATTTCACGTGTGACG	0.3
TTAATCACGTGGTTTA	0.01
GTATTCACGTGGTAGT	0.15
TGGTACACGTGAGCGG	0.44
CTGAACACGTGTGATT	0.24
GTGATCACGTGTGCGA	0.13
TGTAGCACGTGATTGG	0.03
CGTCGCACGTGGGTTG	-0.31
TTGGCCACGTGGAGAT	0.09
TCAGTCACGTGAAGTG	0.24
TAGTGCACGTGGGATT	-0.03

Sequence	relative binding free energy [kcal/mol]
CGTATCACGTGGCGGT	-0.08
TGTGTCACGTGATTGT	0.2
GTTTTCACGTGGGCAG	0.2
TGTGTCACGTGTATGT	0.04
TTTAGCACGTGTTTTT	-0.01
GCGGTCACGTGTCGGT	0.15
CGTGGCACGTGCGTCG	-0.1
TTAAGCACGTGTGCAT	-0.03
GGATGCACGTGTGGTA	0.01
TGATACACGTGATTTA	0.17
AAGGTCACGTGTGTTG	0.17
TATTTCACGTGTGTTC	0.33
TTGCTCACGTGGAGAT	0.15
GTTGGCACGTGTAAGT	0.06
AGGCACACGTGGGTAG	-0.05
CTGGCCACGTGGTGGG	-0.13
TGGGTCACGTGGTTGG	0.2
AGGGGCACGTGCGGTA	-0.22
TCATTCACGTGGGTGA	0.04
ACTATCACGTGTTGGG	0.04
GTTATCACGTGGGACA	0.1
TAGCGCACGTGAGGTA	0.22
CATAGCACGTGTGGGG	-0.19
